These results are taken from PMC4773433, “The Bub1–Plk1 kinase complex promotes spindle checkpoint signalling through Cdc20 phosphorylation” (Nature Communications, 2016).

Test [1] deals with T1, His6-Cdc20^ΔN60 S92E (human, UniProt Q12834, S92E).
T1 construct: Cdc20, human, residues 61-499 (Cdc20^ΔN60), phospho-mimicking S92E; also called Cdc20 S92E; source: Sf9, purified (Ni-NTA)
In words: pull-down; purified His6–Cdc20^ΔN60 WT or S92E immobilised on Ni-NTA beads, incubated with BubR1N and Mad2, 1 h at room temperature, five washes, immunoblotting. Particulars: both partners purified. (A western blot detects proteins with antibodies after separation by electrophoresis.)

For test [2], the target named is T2, His6-Cdc20^ΔN60 WT (human, UniProt Q12834).
T2 construct: Cdc20, human, residues 61-499 (Cdc20^ΔN60); also called Cdc20 WT; recombinant Cdc20; source: Sf9, purified (Ni-NTA)
The test is described as above. Particulars: both partners purified.

B1: recombinant human Mad2 (natural protein)
chain: not shown
notes: Mad2, human; the coding region was cloned into pQE30 with a TEV cleavage site; source: bacteria (pQE30), purified (Ni-NTA, TEV, Mono-Q, Superdex-75)
For B1, the binding result in test [1] and in test [2] was “binds” each time.
